# Test results reported in the supplement of paper PMC3334620.
# The full ranking holds about 33,000 sequences; the median of “E-score (-0.5 to 0.5)” is about -0.01, and the highest 2% start at about 0.26. The list shows a part of the results.
# Target: Ste12 (UniProt P13574)
# Test: PBM E-score (8-mer binding enrichment) (E-score (-0.5 to 0.5)); higher = stronger / more preferred TF binding; most listed sequences are background and not binding sites
# Conditions: protein concentration: 200 nM; construct: GST-DNA-binding domain
# Method in brief: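 Yeast transcription factors, full-length or as DNA-binding domains, were expressed with a GST tag using PURExpress in vitro transcription/translation. At about 100-200 nM they were applied to universal all-10-mer Agilent arrays, double-stranded by primer extension on fresh or once-stripped slides. Fluorescent anti-GST detected bound protein, and masliner normalised the scans. E-scores for ungapped eight-base words, pooled with reverse complements, came from the Universal PBM Analysis Suite.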
row,Sequence,PBM E-score
1,ACGCCCTA,-0.113
2,AGCCGTGA,0.125
3,ACAGTTAA,0.144
4,AGTTGCGG,0.209
5,AGTTAATC,0.0298
6,AGTCAACG,-0.226
7,ATGGAACG,0.0382
8,GAAAACAC,0.0529
9,ATCCAGAC,-0.0146
10,GCACCAAA,0.122
11,CTTAGTAC,-0.0372
12,AGAGGTGA,-0.042
13,GTAAGCCA,-0.0467
14,CATCATGC,-0.00066
15,AAGCGGAA,0.0453
16,ACAAGGTC,0.0964
17,ATCCATCC,0.07
18,GACGCAAC,-0.0807
19,AAGTCCAT,-0.184
20,ATTTCTTG,0.128
21,GAGTTACA,0.183
22,ATATTCTC,0.108
23,CATATGAC,0.0788
24,CCCATCCG,-0.00603
25,CATTATGC,0.0482

row,Sequence,PBM E-score
1,CCCATATA,0.115
2,GGGACACA,0.17
3,AGTGAAAC,0.394
4,CCTCGAAC,-0.0197
5,CTCTCGGA,0.0537
6,TCTGAAAA,0.12
7,CATATAAA,0.0963
8,GAGCCACC,-0.028
9,ATGCAAAA,0.133
10,CATCACCG,-0.119
11,CGGATCTC,-0.202
12,GCACTTCA,-0.0777
13,CCTGTCTA,0.0313
14,CGCAAGTA,0.00501
15,AACCGAAC,0.0486
16,CCGCTCGA,0.0774
17,ATAGTGTC,-0.0365
18,CGGTGAGC,-0.157
19,CAACTCCC,0.0312
20,CGCTTCGC,-0.25
21,AAGTTCAC,0.0472
22,CCGACAAA,-0.0229
23,CCGAGAAG,-0.0038
24,AGTTCACG,-0.169
25,CCTGGCGC,0.0112

row,Sequence,PBM E-score
1,AACCCAAT,0.06
2,CAACCCAC,0.0306
3,CCCTGTAC,-0.19
4,ATTCACGG,0.00567
5,AGCTAGTG,-0.0478
6,GTTAAGAA,0.0624
7,CCTCGTGA,0.0398
8,TGTTATAA,0.283
9,GCGGAGAA,0.0895
10,AATGGACA,-0.081
11,AAGAAGGC,-0.0892
12,CGTAGCTC,-0.0695
13,CATTTAAG,-0.0794
14,GTAAAGAA,0.0147
15,CGAATGAC,0.142
16,GCAGTTAC,-0.0853
17,CATTATAG,0.12
18,GACGCCTC,-0.0132
19,GGGAATTA,0.109
20,CACTCTAA,0.00474
21,ACCGTTAC,-0.0206
22,CCCACGCC,-0.0857
23,ATACGAAT,0.00827
24,GTTACAGA,0.18
25,ATCTCTCG,-0.0464

row,Sequence,PBM E-score
1,CCTCATCA,0.066
2,TCGATTCA,0.118
3,AATATAGA,0.123
4,AAACTCCT,-0.00655
5,ACAGAAAA,0.232
6,AGATCATA,-0.087
7,CCGCAAGA,-0.0329
8,GACCTTGC,-0.216
9,GCATAGCA,-0.0674
10,AAGTTTAT,0.158
11,AGGTGCAC,-0.0399
12,GTATCCCA,-0.025
13,GGGGTCTA,-0.00725
14,CACTACTA,-0.049
15,ATTCGCAA,0.0321
16,AAAGGCAA,0.133
17,CACCCATG,-0.149
18,ATATGAGC,-0.042
19,GGCATACC,-0.271
20,AGTAGTAC,-0.0646
21,CAATAAGC,0.0921
22,CCTGCGTA,-0.149
23,AACTGTTA,0.0976
24,AAGGTTAT,0.0194
25,AACCGAGT,-0.206

row,Sequence,PBM E-score
1,CAAAGCTG,-0.0285
2,ACACGTCG,-0.21
3,GAGTGGCC,-0.137
4,AATGGTTC,-0.0247
5,GGCAAAGA,0.138
6,GACCGAAC,0.104
7,ATGAGACA,0.338
8,GCATCGCC,-0.18
9,AGTGCGTG,-0.0891
10,CGCAAGCC,0.0766
11,ACTTTCCT,-0.0706
12,GACGGCAA,0.0517
13,ATGACTTC,-0.0836
14,AAGGTAAG,-0.00826
15,TATGCGCA,-0.196
16,GTGACTTA,0.0415
17,ACGCCTGA,-0.135
18,CATTTGGC,7e-05
19,GGCAGGGA,0.0949
20,ACGCGACC,-0.135
21,CAATCGCG,-0.0142
22,CCCAATTC,0.167
23,AGTAAGGA,0.048
24,CGTCGAGC,-0.065
25,TAACCCAA,0.182

row,Sequence,PBM E-score
1,TCATGGCA,0.0667
2,CAATCGAG,-0.109
3,GAAATGCA,0.109
4,GCGCTGCC,-0.179
5,GCGTGACA,0.126
6,CTGCTATA,-0.0198
7,CCTAAGCA,-0.196
8,ACCATGTC,0.00229
9,CGGTTTTA,0.189
10,CATTCCCC,-0.0665
11,GGAAGTAA,0.0621
12,CGCTGGAA,0.0114
13,AAGCTCTA,-0.0834
14,ATCACGGG,0.0394
15,CGACGGCA,-0.00442
16,GGTAATTA,0.0627
17,GACATGAC,-0.0572
18,CCGAATTC,-0.00494
19,ATAGATAC,0.0939
20,GTACACGA,-0.0985
21,CCGTATGA,-0.0203
22,TTACTGAA,0.0569
23,GACATTCA,0.0286
24,AGCAGTCC,-0.293
25,CGCGCTGA,0.0713

row,Sequence,PBM E-score
1,GAAAAAAA,0.369
2,CCGGTTTC,0.298
3,AGGCCCTG,-0.235
4,CTAAGACA,0.0664
5,GACAAATC,0.16
6,GAAAAGAC,0.102
7,CGCCTTAC,-0.0868
8,TCTGCTCA,-0.0821
9,CAAAAGGG,-0.115
10,CCGTACCA,0.052
11,ATTACTTA,0.113
12,CTTATTTC,0.157
13,CGTTACCA,0.0903
14,CTAGACGC,-0.206
15,CTAAAGAG,0.0426
16,AACCCGCG,0.188
17,AACATGTG,0.261
18,CGGTGACA,0.0734
19,CATAGCAC,0.0266
20,CCCCGACG,-0.0518
21,CTAAACAG,0.0203
22,CATCACTA,-0.118
